Laboratory results from PubChem BioAssay AID1477 (National Center for Advancing Translational Sciences (NCATS), 2009).
Among all 230,000 compounds or so, fewer than 10 were called active. This list was built around the results that the source calls inconclusive (neither active nor inactive); the mix of calls is not that of the screen. The call rests on the fitted dose curve; in most records, active means well fitted curve in the direction sought with a large enough effect; inconclusive means small, poorly fitted or top-dose-only effect, or effect the other way, or another doubt; inactive means no such curve, though single readings can be large or run the other way. No potency is given beside an inconclusive call; the fits are too rough.

Each molecule was assayed against Runt-related transcription factor 1 (Homo sapiens) + Core-binding factor subunit beta (Homo sapiens) (UniProt Q01196+Q13951) (assay: qHTS Assay for Compounds Blocking the Interaction Between CBF-beta and RUNX1 for the Treatment of Acute Myeloid Leukemia). Conditions: AlphaScreen CBFb-His/RUNX1-biotin binding, biochemical; activity, negative = inhibition: at 59.8 µM (top of the series) unless noted.
Summary of the method: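 Bead-based AlphaScreen assay; binding partners His-tagged CBF-beta and biotinylated RUNX1 at 30 nM each. Compound exposure 15 min after a 20-min protein preincubation; bead step 90 min; all steps at room temperature.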
Wherever activity, negative = inhibition is given: % of control where 0% means no effect.

UniProt Q01196, sequence (Q01196 whole entry, looked up): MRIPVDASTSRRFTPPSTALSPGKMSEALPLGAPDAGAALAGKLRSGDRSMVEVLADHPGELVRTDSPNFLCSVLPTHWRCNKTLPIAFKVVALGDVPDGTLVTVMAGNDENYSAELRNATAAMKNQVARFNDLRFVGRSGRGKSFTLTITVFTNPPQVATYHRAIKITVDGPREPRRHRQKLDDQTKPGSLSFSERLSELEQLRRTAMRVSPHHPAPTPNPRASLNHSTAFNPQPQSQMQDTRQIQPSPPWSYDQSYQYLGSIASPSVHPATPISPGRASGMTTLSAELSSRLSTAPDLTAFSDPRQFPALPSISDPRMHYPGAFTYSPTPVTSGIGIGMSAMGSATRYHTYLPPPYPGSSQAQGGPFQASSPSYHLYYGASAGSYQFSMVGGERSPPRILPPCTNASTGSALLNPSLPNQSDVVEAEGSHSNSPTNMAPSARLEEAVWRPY
UniProt Q01196, sequence (Q13951 whole entry, looked up): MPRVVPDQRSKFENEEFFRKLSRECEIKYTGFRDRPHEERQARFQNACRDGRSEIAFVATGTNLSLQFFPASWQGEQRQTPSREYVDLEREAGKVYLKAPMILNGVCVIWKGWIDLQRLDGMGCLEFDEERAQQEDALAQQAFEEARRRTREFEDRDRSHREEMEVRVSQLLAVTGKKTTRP

Structure (SMILES)	Potency	activity, negative = inhibition
Nc1ccccc1C(=O)NNc1c2ccccc2nc2ccccc12	inconclusive [inhibitor, single point]	
O=C(O)c1ccc(-c2nc(-c3cccc(C(F)(F)F)c3)cs2)cc1	inconclusive [activator, single point]	
N#Cc1c(NC(=O)CSc2ncnc3sccc23)oc(-c2ccco2)c1-c1ccco1	inconclusive [inhibitor, single point]	
O=C(Oc1ccc2c(c1)OCO2)c1cc2c(s1)CCC2	inconclusive [inhibitor, partial curve]	
COc1cc(C(CCN2CCCC2)c2c(OC)cc(OC)c3c(-c4ccccc4)cc(=O)oc23)cc(OC)c1OC (configuration not stated)	inconclusive [inhibitor, single point]	
COc1ccc(NC(=O)c2cccc(Cn3cc(Br)cn3)c2)cn1	inconclusive [inhibitor, single point]	
O=C(C1CC(c2ccc(Cl)c(Cl)c2)=NO1)N1CCC2(CC1)OCCO2 (configuration not stated)	inconclusive [activator, single point]	
CCCCC(CC)C/C=C1\CC(C(=O)OCC)Oc2ccccc21 (configuration not stated) (tested in a mixture with another compound)	inconclusive [activator, partial curve, poor fit]	
CC(C)(C)c1nn(-c2ccccc2)c2[nH]c(=O)c(CNc3ccc4c(c3)OCCO4)cc12	inconclusive [inhibitor, single point]	
Cc1[nH]n(-c2ccc([N+](=O)[O-])cc2)c(=O)c1C=NCCN1CCN(C(=O)c2ccc(Br)cc2)CC1		inactive: -1.28%
COc1ccc(S(=O)(=O)N2N=C(c3ccc(NS(C)(=O)=O)cc3)CC2c2ccco2)cc1 (configuration not stated)	inconclusive [inhibitor, partial curve, poor fit]	
Cc1cc(/C=C2\SC(=S)NC2=O)c(C)n1-c1cccc(O)c1	inconclusive [inhibitor, single point]	
Cc1cc(C(=O)CSc2nnc(C3COc4ccccc4O3)n2C)c(C)n1-c1ccc(F)cc1 (configuration not stated)	inconclusive [inhibitor, single point]	
COc1ccc2[nH]cc(C(=O)CN3CCN(C4CCCCC4)CC3)c2c1		inactive: -0.825%
CN(C)c1ccc(NC(=S)N(CCc2ccccc2)C2CC(=O)N(c3c(Cl)cccc3Cl)C2=O)cc1 (configuration not stated)	inconclusive [inhibitor, partial curve]	
CCn1nnnc1NCc1ccc(N2CCCC2)cc1	inconclusive [inhibitor, single point]	
O=C1NC(=O)N(c2ccccc2)C(=O)/C1=C\c1ccc([N+](=O)[O-])o1	inconclusive [inhibitor, single point]	
Fc1ccccc1N1CCN(c2cnc3ccccc3n2)CC1	inconclusive [activator, partial curve]	
O=C(N[C@@H](c1ccccc1)[C@@H]1C[C@H]1C(=O)NCc1ccccn1)OCc1ccccc1	inconclusive [inhibitor, single point]	
Oc1ccc(/C=N/Nc2ccnc3cc(Cl)ccc23)cc1O	inconclusive [inhibitor, partial curve]	
COc1ccc(OC)c(S(=O)(=O)N(C)CC(=O)N2CCN(c3ccc(F)cc3)CC2)c1	inconclusive [activator, partial curve]	
CCOC(=O)c1cnc2nc(NCc3ccc(OC)c(OC)c3)[nH]n2c1=O	inconclusive [activator, single point]	
COc1ccc(OCCNc2cc(Cl)ccc2[N+](=O)[O-])cc1	inconclusive [inhibitor, partial curve]	

Structure (SMILES)	Potency	activity, negative = inhibition
O=C(CSc1ncnc2[nH]ncc12)Nc1nc(-c2ccc(F)c(F)c2)cs1	inconclusive [activator, single point]	
COc1ccc(N2CCN(c3c(S(=O)(=O)c4ccccc4)cnc4ccc(OC)cc34)CC2)cc1	inconclusive [inhibitor, partial curve]	
Cc1ccc(C2=C(CC(=O)O)C(=O)CC2)cc1		inactive: -4.16%
CC(C)CC(=O)Nc1cccc(-c2csc(-c3ccccc3)n2)c1	inconclusive [activator, partial curve]	
CCOc1cccc(OCCCCN2CCCCC2)c1		inactive: -0.735%
Cc1onc(C(=O)N2C(C)CCCC2C)c1[N+](=O)[O-] (configuration not stated)	inconclusive [activator, single point]	
C[C@H](NC(=O)N1CCc2nc(-c3ccccc3)c3c(c2C1)CO[C@@H](C)C3)c1ccccc1		inactive: 3.53% [at 13.1 µM]
Cc1cccc(C2=NNC(=O)C(c3ccc(Cl)cc3)C2)c1 (configuration not stated)	inconclusive [activator, single point]	
Cc1ccc(O)c(NC(=S)NC(=O)/C=C/c2ccco2)c1	inconclusive [inhibitor, single point]	
Cc1cc(C)n(CCc2nc(-c3ccco3)cs2)n1	inconclusive [inhibitor, single point]	
OC[C@@H]1[C@@H](c2ccc(Cl)cc2)C(c2cccc(Cl)c2)=NN1c1ccccc1	inconclusive [activator, partial curve]	
COc1cc(NC(=O)c2ccc(C(C)(C)C)cc2)c(OC)cc1NC(=O)CN1CCCCC1	inconclusive [inhibitor, single point]	
O=C1OC(c2cc(I)c(O)c(I)c2)(c2cc(I)c(O)c(I)c2)c2ccccc21	inconclusive [inhibitor, single point]	
S=c1[nH]nc(COc2ccccc2)n1/N=C/c1ccccn1		inactive: 0.508%
Cc1ccc(OP(=O)(Oc2ccc(C)cc2)Oc2ccc(C)cc2)cc1	inconclusive [activator, partial curve]	
N#Cc1nc(COc2ccccc2F)oc1N1CCCCCC1	inconclusive [inhibitor, single point]	
c1csc(C2CCCN2c2nc3nonc3nc2NC2CC2)n1 (configuration not stated)		inactive: -5.48%
CCN(CC)CCNC(=O)c1ccc(NC(C)=O)cc1	inconclusive [activator, single point]	
CC(C)C1(C)N=C(c2ncccc2C(=O)O)NC1=O (configuration not stated)	inconclusive [inhibitor, partial curve]	
Cc1nc(N)sc1-c1csc(Nc2ncccn2)n1	inconclusive [activator, partial curve]	
Cc1ccc(NC(=O)Cn2nc(C)c([N+](=O)[O-])c2C)cc1C		inactive: -1.12%
CN=C1C=C/C(=N/N=c2\ccn(O)cc2C)C=C1C	inconclusive [inhibitor, partial curve]	
CCn1cc(C(=O)N2CCN(c3ccc(OC)cc3)CC2)c(=O)c2cc(S(=O)(=O)N3CCCCC3)ccc21	inconclusive [activator, single point]	

Structure (SMILES)	Potency	activity, negative = inhibition
Cc1cc(C(=O)N/N=C/c2cccs2)n[nH]1		inactive: 11.1%
COC(=O)C(C)Oc1ccc(-c2nccc(-c3cccs3)n2)cc1 (configuration not stated)	inconclusive [activator, partial curve]	
COc1ccc2[nH]c3c(=O)n(CCCCC(=O)NCCC(C)C)c(=S)[nH]c3c2c1		inactive: 7.8%
CN(C)c1ccc(Nc2nc(N)c([N+](=O)[O-])c(N3CCOCC3)n2)cc1	inconclusive [inhibitor, single point]	
O=C1N/C(=N/O)S/C1=C/c1cccnc1		inactive: -1.45%
Cc1cc(=O)c2c(O)c3c(O)cc(O)c4c5c(O)cc(O)c6c(O)c7c(=O)cc(C)c8c1c2c(c34)c(c65)c78	inconclusive [inhibitor, partial curve]	
C=CCN(CC=C)S(=O)(=O)c1ccc(NC(=S)NC(=O)c2ccc(-c3ccccc3)cc2)cc1		inactive: 1.04%
CC(C)c1ccc(CNc2cc(N3CCCC3)ccc2[N+](=O)[O-])cc1	inconclusive [inhibitor, partial curve]	
COc1ccc(-c2onc(C)c2-c2ccccc2)c(O)c1		inactive: -0.174%
Cc1cc(N2CCCCCC2)nc(-c2ccccc2O)n1	inconclusive [activator, partial curve]	
O=C(c1cc[n+]([O-])cc1)N1CCc2c([nH]c3ccccc23)C1c1ccccc1Cl (configuration not stated)	inconclusive [inhibitor, single point]	
COc1cc(OC)cc(-c2nnc(SCc3c(F)cccc3Cl)o2)c1	inconclusive [activator, single point]	
Cn1c(=O)c2c(ncn2CC(=O)Nc2cccc(S(=O)(=O)Nc3ccccc3F)c2)n(C)c1=O		inactive: 2.25%
CN(C)CCN(C)Cc1ccccc1Sc1cccc2ccccc12		inactive: -0.411%
O=[N+]([O-])c1ccc(N/N=C/c2sc(N3CCOCC3)nc2-c2ccccc2)c(S(=O)(=O)Nc2ccccc2Cl)c1		inactive: 0.446%
COc1ccc(NC(=O)N2CCCC2C(=O)NCc2ccc(C)cc2)cc1 (configuration not stated)		inactive: 4.56%
O=C(CN1CCN(c2nc(-c3ccccc3)cs2)CC1)Nc1ccc2c(c1)OCO2	inconclusive [inhibitor, single point]	
C/C(=N\NC(=O)c1cccc(Cl)c1)C1C(=O)c2ccccc2C1=O		inactive: 10.5%
O=C(CNc1cccc(C(F)(F)F)c1)N/N=C/C1CCCCC1		inactive: 1.52%
CCOc1ccc(N2C(=O)c3cccnc3C2Nc2ccc(Cl)cc2)cc1 (configuration not stated)		inactive: -5.43%
Cc1cc(OCC(=O)O/N=C(\N)Cc2cccs2)ccc1Br	inconclusive [activator, single point]	
